The results in this text go back to PubChem BioAssay (NCI).

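Interpolation was linear, between the two tested concentrations surrounding the appropriate level; five concentrations were tested over 48 hours in 96-well plates. GI50 is the concentration that inhibits growth by half. Definition used: TGI = concentration required for complete inhibition of growth.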 A value given as a limit tells only on which side of the number the result lay.

The experiment concerns NCI-H322M lung. Description: growth of human tumour cells (NCI), 48 h.
On to `CC1=C(CN(O)C(N)=O)C2=C(C)C3(CC3)[C@@](C)(O)C(=O)C2=C1`, for which the GI50 was 0.183 µM and the TGI amounted to 0.727 µM.
For the compound `O=C(NNc1nc2cc(F)ccc2n2cccc12)c1ccncn1`, the GI50 is 0.195 µM and the TGI was greater than 30 µM.
Take `COc1cccc(N2CCN(c3ncnc4c3[nH]c3ccc(F)cc34)C[C@@H]2C)c1`: the GI50 was 2.02 µM and the TGI is 4.49 µM.
